Hit rate of the full screen: of about 310,000 compounds, about 14,000 (4.5%) showed an effect of 50% or more. The effect is printed as a negative number. The list shows a part of the results. Where a SMILES comes first, the peptide text is derived from it. The star is where a group is joined. Boc = CC(C)(C)OC(=O)*
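Also: peak tail current of the secondary pulse compared with the same well before compound.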

For the assay, the target named is human ether-à-go-go-related gene (hERG) potassium channel (human, UniProt Q12809). Briefly: primary screen, population patch clamp on CHO cells stably expressing hERG.
Chain of human ether-à-go-go-related gene (hERG) potassium channel (Q12809 whole entry, looked up): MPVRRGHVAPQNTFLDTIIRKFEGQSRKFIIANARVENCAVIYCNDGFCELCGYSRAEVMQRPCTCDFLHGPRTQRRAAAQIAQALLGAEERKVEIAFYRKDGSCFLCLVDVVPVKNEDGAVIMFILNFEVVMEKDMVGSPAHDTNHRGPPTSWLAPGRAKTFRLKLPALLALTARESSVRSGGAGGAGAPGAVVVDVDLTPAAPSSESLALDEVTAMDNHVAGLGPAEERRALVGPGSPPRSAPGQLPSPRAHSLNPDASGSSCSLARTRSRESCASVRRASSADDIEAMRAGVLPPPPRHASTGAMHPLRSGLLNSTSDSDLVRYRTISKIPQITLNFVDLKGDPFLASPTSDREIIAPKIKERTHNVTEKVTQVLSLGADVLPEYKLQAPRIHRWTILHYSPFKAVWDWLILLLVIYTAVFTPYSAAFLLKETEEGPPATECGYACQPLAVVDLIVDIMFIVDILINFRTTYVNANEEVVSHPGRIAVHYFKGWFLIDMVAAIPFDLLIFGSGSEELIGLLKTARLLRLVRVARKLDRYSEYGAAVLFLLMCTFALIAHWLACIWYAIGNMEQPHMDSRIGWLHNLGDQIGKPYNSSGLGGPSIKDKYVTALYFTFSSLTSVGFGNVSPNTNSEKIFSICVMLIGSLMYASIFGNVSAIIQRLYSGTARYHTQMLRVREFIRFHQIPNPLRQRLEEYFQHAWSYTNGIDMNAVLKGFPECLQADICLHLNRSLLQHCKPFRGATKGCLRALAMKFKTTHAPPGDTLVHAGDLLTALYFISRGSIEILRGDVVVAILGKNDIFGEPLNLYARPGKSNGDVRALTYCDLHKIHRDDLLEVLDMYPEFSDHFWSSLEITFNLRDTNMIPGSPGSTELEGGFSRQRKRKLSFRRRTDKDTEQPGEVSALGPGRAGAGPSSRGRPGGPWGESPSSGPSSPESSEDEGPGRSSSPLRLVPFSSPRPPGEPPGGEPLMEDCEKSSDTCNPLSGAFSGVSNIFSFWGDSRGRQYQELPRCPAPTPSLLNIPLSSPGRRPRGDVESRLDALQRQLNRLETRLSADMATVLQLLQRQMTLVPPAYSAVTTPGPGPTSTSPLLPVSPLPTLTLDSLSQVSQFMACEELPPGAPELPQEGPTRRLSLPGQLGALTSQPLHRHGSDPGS
`CCc1ccccc1NC(=S)N(CCCN1CCN(C)CC1)Cc1cccs1`: the “hERG current change (%, negative = inhibition) at 10uM” value is reported as -46%. For `COC(=O)C1C2c3ccccc3OC1(C)N=c1s/c(=C/c3cn(C)nc3C)c(=O)n12` (stereo not drawn), the “hERG current change (%, negative = inhibition) at 10uM” value stood at 11.2%. To `O=C(c1nc2ccccn2c1CNCCCn1ncc2ccccc21)N1CCOCC1` belongs -18.4%; to `COc1ccc(CN2CCNC(=O)C2CC(=O)NCCCn2cccn2)cc1C` (stereo not drawn), -35.8%.

As for `CC(=O)c1ccc(NS(=O)(=O)c2ccc(C(C)(C)C)cc2)cc1`, the “hERG current change (%, negative = inhibition) at 10uM” value is listed as 21.7%. Turning to `COc1ccccc1NC(=O)NCCN1CCN(C(=O)Nc2ccccc2OC)CC1`, the “hERG current change (%, negative = inhibition) at 10uM” value worked out at 6.68%. The result for `O=C(COC(=O)CNC(=O)c1ccc(Cl)cc1)Nc1ccc(Cl)cc1C(F)(F)F` reads 15.7%; that for `O=C(O)c1c2c(nc3ccc(S(=O)(=O)N4CCC(C(=O)NCc5ccc(Cl)cc5)CC4)cc13)CCCC2`, 14.8%. The result for `Cc1cc(C)cc(OCc2nnc(SCC(=O)c3ccc(Br)cc3)o2)c1` reads -20.1%; that for `COc1ccc(NS(=O)(=O)c2cc(C(=O)N3CCN(C(C)=O)CC3)ccc2Cl)cc1`, 21%. The result for `CCC1=C2CC[C@H]3C(=O)N(C)C(=O)[C@H]3[C@H]2[C@@]2(Cc3ccccc3)C(=NCCOC)OC(=O)N2C1=O` reads -21.5%. Turning to `O=C(NC1CCCCC1)C1CCCN(c2nnnn2-c2ccccc2)C1` (stereo not drawn), the “hERG current change (%, negative = inhibition) at 10uM” value worked out at 1.95%.

As to `CCN(CC)CCCNc1nc(-n2nc(C)cc2C)nc2sc3c(c12)CC(C)(C)OC3`, the “hERG current change (%, negative = inhibition) at 10uM” value was -23%. The result for `COc1ccccc1CNS(=O)(=O)c1ccc2c(c1)CCCN2C(C)=O` reads 0.483%.

Consider `CCOC(=O)c1c(C)[nH]c(C(=O)OCC(=O)Nc2sc(C(=O)N(C)C)c(C)c2C(=O)OCC)c1C`, for which the “hERG current change (%, negative = inhibition) at 10uM” value was -6.87%. In the case of `C=C1C(C(=O)Nc2ccc(OC)cc2)C1C(=O)Nc1ccc(OC)cc1` (stereo not drawn), the “hERG current change (%, negative = inhibition) at 10uM” value was 23.9%.

Take `CC(=O)NCCCC(=O)NNC1CC(=O)N(c2cccc(Cl)c2)C1=O` (stereo not drawn): the “hERG current change (%, negative = inhibition) at 10uM” value is listed as 20.8%.

On to `Cc1nnc(SCC(=O)Nc2ccc(O)cc2)c2ccccc12`, for which the “hERG current change (%, negative = inhibition) at 10uM” value is recorded as 20.9%. To `CCCCNC(=O)C1C2C=CC3(CN(Cc4ccc(C)cc4)C(=O)C13)O2` (stereo not drawn) belongs 4.76%.

For `Cc1[nH]c2ccccc2c1C1(O)C(=O)N(C(C)C)c2ccccc21` (stereo not drawn), the “hERG current change (%, negative = inhibition) at 10uM” value was determined as 16.7%. The result for `C=CCn1nnnc1SCC(=O)Nc1ccc(OC)cc1` reads 17.5%; that for `CCn1c2ccccc2c2cc(NC(=O)c3cccc(OC)c3OC)ccc21`, -10.5%.

Regarding `COC(=O)c1ccc(NC(=O)C(=O)N2CCN(C(=S)Nc3cccc(OC)c3)CC2)cc1`, the “hERG current change (%, negative = inhibition) at 10uM” value is recorded as -6.01%. To `N#Cc1ccc(N2CCOCC2)nc1` belongs -0.729%; to `COc1ccc(/C=C(/NC(=O)/C=C/c2ccccc2)C(=O)O)cc1`, 24.9%; to `COc1ccc(NC(=O)CSc2nc(C)cs2)cc1`, 0.534%. With `COc1cccc(CN2CCC(C(=O)N3CCN(Cc4ccc5c(c4)OCO5)CC3)CC2)c1OC`, the “hERG current change (%, negative = inhibition) at 10uM” value is -39.5%.

On to `Cc1cccc(NC(=O)Nc2ccccn2)c1C`, for which the “hERG current change (%, negative = inhibition) at 10uM” value was -4.92%. Take `N#CC1=C(SCC(=O)Nc2ccccc2)NC(=O)CC1c1ccco1` (stereo not drawn): the “hERG current change (%, negative = inhibition) at 10uM” value was found to be 5.41%. The result for `O=C(NNC(=O)C12CC3CC(CC(C3)C1)C2)c1cnccn1` reads 5.77%; that for `CCC(=O)Nc1cccc(-n2nnnc2SCC(=O)N(C(C)C)C(C)C)c1`, -14.8%; that for `CC(C)(C)C(=O)CN1C(=O)NC2(CCc3ccccc32)C1=O` (stereo not drawn), 11%. The result for `CS(=O)(=O)C1=NSC2=NC(=O)/C(=C\c3cccn3-c3ccc(Cl)cc3)C(=N)N21` reads 2.85%. The result for `CCOC(=O)c1ccsc1NC(=O)c1ccco1` reads 12.8%; that for `CN(CCOc1ccccc1)S(=O)(=O)c1ccc2oc3ccccc3c2c1`, 0.537%; that for `CC(C)CC(NC(=O)OC(C)(C)C)C(=O)NC(C(=O)NC(C)C(N)=O)C(C)C` (stereo not drawn) (Boc-Leu-Val-Ala-NH2; configuration not given here), -5.61%. With `Cc1cccc(NC(=S)NN2CCN(C)CC2)c1`, the “hERG current change (%, negative = inhibition) at 10uM” value was -17.1%. To `O=C(CCCOc1ccccc1)Nc1cccc(C(=O)O)c1` belongs 12.6%.

As for `COC(=O)CSc1nccc(C)n1`, the “hERG current change (%, negative = inhibition) at 10uM” value is reported as 14.6%. To `CCCCc1nc2cc(C(=O)N3CCCC3)ccc2o1` belongs 13.1%.

Consider `Cc1ccc(C(=O)NNC2=Nc3cc([N+](=O)[O-])ccc3OC2)cc1`, for which the “hERG current change (%, negative = inhibition) at 10uM” value came to 9.68%. As for `Cc1cc(NS(=O)(=O)c2ccc(NC(=O)c3ccc([N+](=O)[O-])c(Cl)c3)cc2)no1`, the “hERG current change (%, negative = inhibition) at 10uM” value came out at 6.24%. To `COc1ccc(NC(=O)C2Cc3ccccc3O/C2=N\O)cc1` (stereo not drawn) belongs 13.8%; to `NS(=O)(=O)c1cc2c(cc1Cl)NC(C1CC3C=CC1C3)NS2(=O)=O` (stereo not drawn), 15%; to `Cc1cccc(CN2CCN(C(=S)Nc3ccccc3)CC2)c1`, 1.77%. `CCn1c(SCc2ccccc2)nnc1-c1ccc(S(=O)(=O)N2CCCCC2)cc1`: the “hERG current change (%, negative = inhibition) at 10uM” value is -36.2%. The result for `CC(C)C(=O)N(Cc1cc2ccccc2[nH]c1=O)C(C)(C)C` reads -0.303%.

In the case of `CCOc1ccc(NC(=O)CN(C)C(=O)c2cccnc2SC)cc1OCC`, the “hERG current change (%, negative = inhibition) at 10uM” value was found to be 6.23%. The result for `N#Cc1ccc(S(=O)(=O)N2CCN(C(=O)[C@@H]3CCCN3C(=O)c3cccs3)CC2)cc1` reads -40.6%. As to `COc1cc(/C=C(\NC(=O)c2cc(OC)c(OC)c(OC)c2)C(=O)NC(C(=O)O)c2ccccc2)cc(OC)c1OC` (stereo not drawn), the “hERG current change (%, negative = inhibition) at 10uM” value was -2.38%. To `O=C(C1CCN(S(=O)(=O)c2cccc3cccnc23)CC1)N1CC=C(c2ccccc2)CC1` belongs -23.2%; to `CC(C)N(CC#CCC1(O)c2ccccc2-c2ccccc21)C(C)C.Cl`, -22.3%. To `Cc1cccc2sc(N(CCCN(C)C)C(=O)c3ccco3)nc12.Cl` belongs -74.9%; to `COc1ccc2c(c1OC)CN1CCc3cc4c(cc3C1C2)OCO4` (stereo not drawn), -16.5%.
